To fix the notation:
B1: CPEB3 Ribozyme (parent)
chain: UAACAGGGGGCCACAGCAGAAGCGUUCACGUCGCAGCCCCUGUCAGAUUCUGGUGAAUCUGCGAAUUCUGCUGUAUAUCUC

The source gives no read counts; variants with many changes may rest on few reads.

In this series the parent is B1. Briefly: self-cleavage, relative activity (ratio to wild type); higher = more cleavage; in vitro, sequencing. The gist of the method: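 Relative activity compares each variant's cleaved/total read fraction with that of the unmutated ribozyme. To get these fractions, barcoded CPEB3 ribozyme libraries from rounds of error-prone PCR were transcribed with T7 RNA polymerase for 5 hours at 37°C and then given 15 min of DNase I treatment before EDTA was added. The RNAs were reverse transcribed with template switching and sequenced on Illumina, and DNA sequencing linked barcodes to variants. A minimum of 5 reads applied, and three batches were averaged.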
In the case of UAACAGGGGGCCACAGCAGAAGCGUCCACGUCGCAGCCCCUGUCAGAUUCAGGUGAAUCAGCGAAUUCUGCUGUUUAUCUC [U26C U51A U60A A75U], the self-cleavage was 0.54.

For the variant UAACAGGGGGCCACAGCAGAAGCGUCCACGUCGCAGCCCCUGUCAGAUUCUGGCGAAUCUGCGAAUAUUGCUGUAUAUCUC [U26C U54C U67A C68U], the self-cleavage was 0.12.

As for UAACAGGGGGCCACAGCAGAAGCGUCCACGUCGCAGCCCCUGUCAGAUUCAGGUGAAUCUGCGAAUUCAGCUGUAUACCUC [U26C U51A U69A U78C], the self-cleavage is 0.12.

Take UAACAGGGGGCCACAGCAGAAGCGUCCACGUCGCAGCCCCUGUCAGAUUCUGGCGAAUCUGAGAGUUCUGCUGUAUAUCUC [U26C U54C C62A A65G]: the self-cleavage was found to be 0.33.

For the variant UAACAGGGGGCCACAGCAGAAGCGUCCACGUCGCAGCCCCUGUCAGAUUCCGGUGAACCUGCGAAUCCUGCUGUAUACCUC [U26C U51C U58C U67C U78C], the self-cleavage is 0.1.

For the variant UAACAGGGGGCCACAGCAGAAGCGUCCACGUCGCAGCCCCUGUCAGAUUCUGGUGAACCUGCGAAUUCUGCUGUGUAUCUC [U26C U58C A75G], the self-cleavage is 0.17.

For the variant UAACAGGGGGCCACAGCAGAAGCGUCCACGUCGCAGCCCCUGUCAGAUCCUGGUGAAUCUGCGGAUUCUGCUGUACAUCCC [U26C U49C A64G U76C U80C], the self-cleavage is 0.13.

Turning to UAACAGGGGGCCACAGCAGAAGCGUCCACGUCGCAGCCCCUGUCAGAUUCCGGUGAAUCUGCGAAUUCUGCUGUAUACCUC [U26C U51C U78C], the self-cleavage amounted to 0.32.

For the variant UAACAGGGGGCCACAGCAGAAGCGUCCACGUCGCAGCCCCUGUCAGAUUCUGGCCAAUCUGCGAAUUCUGCAGUAUAUCAC [U26C U54C G55C U72A U80A], the self-cleavage was 0.2.

With UAACAGGGGGCCACAGCAGAAGCGUCCACGUCGCAGCCCCUGUCAGACUCUGGUGGAUCUGCGAAUUCUGCUGUACAUCAC [U26C U48C A56G U76C U80A], the self-cleavage is 0.13.

For UAACAGGGGGCCACAGCAGAAGCGUCCACGUCGCAGCCCCUGUCAGAUUCCGGUGGAUCUGCGAAUUCCGCUGUAUAUCUC [U26C U51C A56G U69C], the self-cleavage was determined as 0.14.

Turning to UAACAGGGGGCCACAGCAGAAGCGUCCACGUCGCAGCCCCUGUCAGAUUCUGGAGAAUCUGCGAAUCCUGCUGUAUAUCUC [U26C U54A U67C], the self-cleavage came out at 0.1.

As for UAACAGGGGGCCACAGCAGAAGCGUCCACGUCGCAGCCCCUGUCAGAUCCUGGUGAAUCUGCGAAUUCUGCUGUUUAUCUC [U26C U49C A75U], the self-cleavage amounted to 0.41.

Consider UAACAGGGGGCCACAGCAGAAGCGUCCACGUCGCAGCCCCUGUCAGAUCCUGGUGAACCUGCGAGUUCUGCUGUAUAUCUC [U26C U49C U58C A65G], for which the self-cleavage is 0.22.

With UAACAGGGGGCCACAGCAGAAGCGUCCACGUCGCAGCCCCUGUCAGAUCCUGGUGAAUCUGCGAAUUCUGCUGUAUAUCAC [U26C U49C U80A], the self-cleavage came out at 0.74.

For UAACAGGGGGCCACAGCAGAAGCGUCCACGUCGCAGCCCCUGUCAGAUCCUGGUGAAUCUGCGAAUUCUGCUGUAUAUCCC [U26C U49C U80C], the self-cleavage was determined as 0.14.

With UAACAGGGGGCCACAGCAGAAGCGUCCACGUCGCAGCCCCUGUCAGAUUCAGGUGAAUCUGCGAAUUCUGCCGUAUAUCUC [U26C U51A U72C], the self-cleavage amounted to 0.72.

Consider UAACAGGGGGCCACAGCAGAAGCGUCCACGUCGCAGCCCCUGUCAGACUCUGGAGAAUCUGCGAAUUCUGCUGAAUAUCUC [U26C U48C U54A U74A], for which the self-cleavage is 0.5.

Consider UAACAGGGGGCCACAGCAGAAGCGUCCACGUCGCAGCCCCUGUCAGAUUCUGGGGAAUCUGCGAAUUCUGCUGUAUAUCCC [U26C U54G U80C], for which the self-cleavage amounted to 0.19.

Consider UAACAGGGGGCCACAGCAGAAGCGUCCACGUCGCAGCCCCUGUCAGACUCUGGUGAAUCUGCGUAUUCAGCUGUAUAUCUC [U26C U48C A64U U69A], for which the self-cleavage stood at 0.31.

Consider UAACAGGGGGCCACAGCAGAAGCGUCCACGUCGCAGCCCCUGUCAGAUUCUGGCGAAUCUGCGAAUUCUGCUGUAUGUCUC [U26C U54C A77G], for which the self-cleavage came to 0.3.

Take UAACAGGGGGCCACAGCAGAAGCGUCCACGUCGCAGCCCCUGUCAGAUCCAGGAGAAUCUGCGAAUUCCGCUGUAUAUCUC [U26C U49C U51A U54A U69C]: the self-cleavage was 0.64.

As for UAACAGGGGGCCACAGCAGAAGCGUCCACGUCGCAGCCCCUGUCAGACUCUGGUGAAUCUGCGAAUUCUGCUGUAUAUCCC [U26C U48C U80C], the self-cleavage is 0.42.

As to UAACAGGGGGCCACAGCAGAAGCGUCCACGUCGCAGCCCCUGUCAGAUUCAGGUGAAUCUGCGAGUUCUGCUGUAUAUCUC [U26C U51A A65G], the self-cleavage turned out to be 0.14.

As for UAACAGGGGGCCACAGCAGAAGCGUCCACGUCGCAGCCCCUGUCAGAUUCAGGUGAAUCUGCGAAUUCUGCUGUAUACCUC [U26C U51A U78C], the self-cleavage was found to be 0.33.

Take UAACAGGGGGCCACAGCAGAAGCGUCCACGUCGCAGCCCCUGUCAGAGUCUGGUGAAUCUGCGGAUUCUGCUGUAUAUCUC [U26C U48G A64G]: the self-cleavage was 0.15.

On to UAACAGGGGGCCACAGCAGAAGCGUCCACGUCGCAGCCCCUGUCAGAUUCAGGUGAAUCUGCAGGCUCUGCUGUAUAUCUU [U26C U51A G63A A64G A65G U66C C81U], for which the self-cleavage was determined as 0.07.

Regarding UAACAGGGGGCCACAGCAGAAGCGUCCACGUCGCAGCCCCUGUCAGAUUCAGGUGAAUAUGCGAAUUCUGCUGUAUACCUC [U26C U51A C59A U78C], the self-cleavage was found to be 0.19.

UAACAGGGGGCCACAGCAGAAGCGUCCACGUCGCAGCCCCUGUCAGAUUCCGGUGAAUCUGCGAAUCCUGCUGUAUAUCUC [U26C U51C U67C]: the self-cleavage stood at 0.11.

Regarding UAACAGGGGGCCACAGCAGAAGCGUCCACGUCGCAGCCCCUGUCAGAUUCCGGUGAAUCUGCGAAUACUGCUGUAUAUCUC [U26C U51C U67A], the self-cleavage turned out to be 0.39.

Turning to UAACAGGGGGCCACAGCAGAAGCGUCCACGUCGCAGCCCCUGUCAGAUACUGGUGAAUCUGCGAAUACUGCUGCACAUCUC [U26C U49A U67A U74C U76C], the self-cleavage amounted to 0.12.

With UAACAGGGGGCCACAGCAGAAGCGUCCACGUCGCAGCCCCUGUCAGACUCUGGUGAAUCUGCGAAUCCUGCUGUAUAUCUC [U26C U48C U67C], the self-cleavage was 0.36.

On to UAACAGGGGGCCACAGCAGAAGCGUCCACGUCGCAGCCCCUGUCAGACUCUGAUGAGUCUGCGAAUUCUGCUGUAUAUCUC [U26C U48C G53A A57G], for which the self-cleavage stood at 0.51.

As to UAACAGGGGGCCACAGCAGAAGCGUCCACGUCGCAGCCCCUGUCAGAUUCUGGUGAACCUGUGAAUUCUGCCGCAUAUCUC [U26C U58C C62U U72C U74C], the self-cleavage came out at 0.14.

For the origin of these results see the RNAGym collection of RNA variant scans (doi:10.1093/nar/gkz1192).
